In all, about 150,000 compounds went through this assay and about 540 (0.36%) showed an effect of 50% or more. The list shows a part of the results.

The assay relates to Plasmodium falciparum. As to the kind of experiment: Primary screen in NF54 nanoGlo assay, in single point, at 2uM, 72h; a lower Z score goes with more inhibition. The class given is functional, Erythrocyte. The note with it: timepoint 72 hour.
As a reminder, the % Inhibition is the relative decrease from the control value, in per cent. As for `Cc1ccc(-c2nn(C)cc2C(=O)N2C[C@H]3CN(C)C[C@@]3(C)C2)o1`, the “% Inhibition” value was -6% and the Z score worked out at 0.82.
For `Cc1cc(-c2cc(S(=O)(=O)Nc3cccc(Cl)c3)c(C)s2)on1`, in that order: 2% and -0.18.
Regarding `c1ccc(-n2nnnc2N2CCC[C@H](c3nccn3CC3CC3)C2)cc1`, the “% Inhibition” value is 5% and the Z score is -0.59.
`CCn1cc(S(=O)(=O)NC(=O)[C@@H](C)Cc2ccc(C)cc2)cn1`: the “% Inhibition” value is on record as -10% and the Z score is recorded as 1.94.
In the case of `Cc1ccc(C)c(-n2nc(C)nc2C2CCNCC2)c1`, the “% Inhibition” value is recorded as -4% and the Z score was 0.64.
As for `O=C(c1n[nH]c2c1CCCC2)N1C[C@H]2CC[C@@H](C1)N(Cc1ccccn1)C2=O`, the “% Inhibition” value is -12% and the Z score was 1.84.
For `COc1cc(-c2nc3ccccc3c(=O)[nH]2)ccc1OCc1ccc(Br)cc1`, in that order: -40% and 4.75.
Consider `COc1ccc2cc1Oc1cccc(c1)CO[C@H]1CN(C(=O)c3cc(=O)[nH]c4ccccc34)C[C@@H]1NC(=O)CN(C)C2`, for which the “% Inhibition” value is on record as 17% and the Z score is listed as -2.3.
Consider `CCn1nc(C(=O)O)c2c1CC[C@H](NCc1cn3ccsc3n1)C2`, for which the “% Inhibition” value was -15% and the Z score is given as 2.77.
As to `O=C(O)Cn1nc(C2CCCC2)nc1-c1cccc(Cn2cccn2)c1`, the “% Inhibition” value is on record as -12% and the Z score stood at 2.32.
For `Cc1nnc([C@H]2CCN(Cc3ccco3)C2)o1`, in that order: 3% and -0.42.
Turning to `O=C(Cn1cccn1)N1CC2CC1CO2` (configuration not stated), the “% Inhibition” value was -17% and the Z score is 2.18.
For `CC(C)=CCN1CC2(CCN(C(=O)c3ccc(C#N)cc3)CC2)CC1=O`, in that order: -3% and 0.31.
In the same order, the values of `CC[C@@H](CNC(=O)c1cccnc1)N1CCCC1` are -14% and 1.45.
For `Cc1nccn1CC(=O)N(C)C1CCCCC1`, the “% Inhibition” value is on record as -1% and the Z score came out at 0.11.
In the same order, the values of `Cc1nccn1-c1cc(N2CCC(C(=O)Nc3ccc(OC(F)(F)F)cc3)CC2)ncn1` are -11% and 1.71.
In the same order, the values of `CCS(=O)(=O)N1CCC[C@@](F)(C(=O)NCc2ccncc2)C1` are -21% and 1.81.
For `CC1CN(C(=O)c2ccc(Cl)c(C#N)n2)C(C)CN1C` (configuration not stated), the “% Inhibition” value is -7% and the Z score came to 0.85.
In the same order, the values of `c1ccc(-c2nnc(CN3CCn4ccnc4C3)o2)cc1` are 4% and -0.77.
Turning to `Cc1cc(C)c2c(CC(=O)N3CC[C@H]4[C@H](C3)OCc3cnnn34)coc2c1C`, the “% Inhibition” value was -3% and the Z score was determined as 0.42.
For `COC(=O)[C@H](C)NC(=O)c1cccc(C)c1`, in that order: -12% and 1.17.
For `O=C(C1CCCCCC1)N1CCN(Cc2ccccn2)[C@@H]2CS(=O)(=O)C[C@@H]21`, in that order: -7% and 0.81.
Consider `Cc1cccc(NC(=O)C[C@H](C)Cc2nnc3c(=O)n(-c4cccc(F)c4)ccn23)c1`, for which the “% Inhibition” value is 4% and the Z score is reported as -0.63.
In the same order, the values of `O=C(CCc1ccccc1Br)N[C@H]1CCN(C2CC2)C1` are 1% and -0.17.
For `Cc1cnccc1NC(=O)C1=Cc2ccccc2OC1`, in that order: -16% and 2.44.
For `O=C1CC[C@H](N2CCN(Cc3ccc4c(c3)OCO4)CC2)CCN1Cc1ccc(F)cc1F`, in that order: -13% and 1.72.
`COCCCN1CC2(CCN(C(=O)c3c(F)cccc3OC)CC2)CC1=O`: the “% Inhibition” value is on record as -2% and the Z score worked out at 0.39.
For `O=C(c1cc(S(=O)(=O)N2CCOCC2)cs1)N1CCC(Cc2ccccc2)CC1`, in that order: -15% and 1.77.
For `COc1cc(C(=O)NC[C@H](C)O)cc(OC)c1OC`, in that order: 31% and -3.94.
For the compound `O=C(NCC(CO)C1CCCCC1)[C@@H]1C[C@H]2CC[C@@H]1O2` (some centres not stated), the “% Inhibition” value worked out at 4% and the Z score is given as -0.55.
As for `O=C(c1ccco1)N1CCC(c2nnn[nH]2)CC1`, the “% Inhibition” value is -8% and the Z score is 1.21.
In the same order, the values of `CN1CCN([C@@H]2COC3(C2)CN(C(=O)c2ccc(OC(F)(F)F)cc2)C3)CC1` are -10% and 1.6.
In the same order, the values of `Cc1cnc(C(C)(C)NCC(=O)N(C)C)s1` are 29% and -3.95.
In the same order, the values of `N#Cc1ccc(CN2CCC(N3C(=O)[C@H]4CCCN4C3=O)C2=O)cc1` (some centres not stated) are -5% and 0.42.
In the case of `C[C@H]1CNC[C@@H]1Cc1nc(-c2ccc(N3CCCC3)cn2)no1`, the “% Inhibition” value amounted to 1% and the Z score was -0.1.
`CCNC(=O)N1CCC[C@H](Oc2nc(C(C)C)nc3c2CCOCC3)C1`: the “% Inhibition” value is listed as -4% and the Z score came out at 0.58.
For `Nc1ccccc1-c1nc(C2CC2)no1`, in that order: 15% and -1.98.
In the case of `COCCn1nc([C@H]2CCCN(C(=O)c3ccc(C(F)(F)F)cc3)C2)n(C2CC2)c1=O`, the “% Inhibition” value is listed as -6% and the Z score worked out at 0.68.
In the same order, the values of `Cc1cc(=O)n(CC(=O)N2CCC(c3nccn3C)CC2)c2ccccc12` are -2% and 0.33.
In the same order, the values of `c1ccc(OCCNc2ccc3nnnn3n2)cc1` are -4% and 0.36.
In the same order, the values of `COC1(c2ccccc2)CCN(C(=O)[C@H]2CCCN(C(N)=O)C2)CC1` are -8% and 1.57.

Values taken from ChEMBL document CHEMBL4888484, “Replenishing the malaria drug discovery pipeline: Screening and hit evaluation of the MMV Hit Generation Library 1 (HGL1) against asexual blood stage Plasmodium falciparum ,using a nano luciferase reporter read-out” (2022).
